Test results from PubChem BioAssay AID1460 (National Center for Advancing Translational Sciences (NCATS), 2008).
The campaign covered roughly 270,000 compounds. About 5,800 (2.1%) were called active. Inconclusive means that the source gave no clear call. Such entries were picked first, then a sample of the others. Calls come from the whole dose curve; as a rule, active = well fitted inhibition curve with a large enough effect; inconclusive = small, poorly fitted or top-dose-only effect; inactive = flat fitted curve, though single readings scatter. Where the call is inconclusive, the potency comes from a doubtful curve fit.

target: Microtubule-associated protein tau (Homo sapiens) (UniProt P10636); assay: qHTS for Inhibitors of Tau Fibril Formation, Thioflavin T Binding; settings: recombinant tau K18 P301L, heparin-induced fibrillization, ThT fluorescence; series mostly up to 57.4 µM; activity, negative = inhibition: at the top concentration; note: nearly all actives have a fitted effect of over 55% in size
Method in brief: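 Fibril formation assay: tau K18 P301L at 15 uM with trace Alexa 594 label, heparin inducer 20 uM, pH 7 sodium acetate buffer, 37 C for 6 hr; endpoint ThT signal.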
% is set by controls: 0 for no effect and ±100 for the full control effect; potency is the fitted concentration of half-maximal effect; tags give direction and shape of the fitted curve.

Chain of UniProt P10636 (P10636 whole entry, looked up): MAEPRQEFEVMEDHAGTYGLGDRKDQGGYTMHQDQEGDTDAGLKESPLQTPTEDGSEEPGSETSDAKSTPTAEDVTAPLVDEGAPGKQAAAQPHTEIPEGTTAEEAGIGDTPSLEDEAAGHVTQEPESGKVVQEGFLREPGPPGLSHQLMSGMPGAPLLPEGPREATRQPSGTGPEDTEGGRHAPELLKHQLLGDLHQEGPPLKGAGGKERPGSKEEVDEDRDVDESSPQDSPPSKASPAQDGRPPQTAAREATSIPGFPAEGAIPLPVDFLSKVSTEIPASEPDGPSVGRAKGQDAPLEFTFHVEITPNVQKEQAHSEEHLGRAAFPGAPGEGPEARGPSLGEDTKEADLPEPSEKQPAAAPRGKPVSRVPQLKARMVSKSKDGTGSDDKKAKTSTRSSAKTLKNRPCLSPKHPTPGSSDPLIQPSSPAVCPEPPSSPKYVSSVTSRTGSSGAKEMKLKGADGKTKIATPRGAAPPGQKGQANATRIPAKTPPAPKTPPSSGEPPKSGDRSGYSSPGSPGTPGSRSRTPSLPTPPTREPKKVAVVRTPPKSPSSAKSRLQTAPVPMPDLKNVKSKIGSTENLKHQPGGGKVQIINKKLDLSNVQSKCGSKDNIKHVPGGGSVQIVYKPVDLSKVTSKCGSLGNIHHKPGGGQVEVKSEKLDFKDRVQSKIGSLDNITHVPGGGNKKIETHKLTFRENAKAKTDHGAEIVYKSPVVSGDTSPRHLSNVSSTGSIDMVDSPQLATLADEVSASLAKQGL

Structure (SMILES)	Potency	activity, negative = inhibition
O=C(N/N=C/c1ccncc1)c1nc2ccccc2c(=O)[nH]1	inconclusive: 17.8 µM [inhibitor, partial curve]	
c1ccc(-c2nc(-n3nc4ccccc4n3)nc3ccccc23)cc1	inconclusive: 7.94 µM [inhibitor, single point]	
NNC(=O)c1cn2ccccc2n1	inconclusive: 28.2 µM [inhibitor, single point]	
COc1ccc(NC(=O)c2c(NCc3ccc(C)o3)sc3c2CCC(C)C3)cc1 (stereo not drawn)	active: 25.1 µM	
CCOc1ccc(N2CC(c3nc4ccccc4n3CCCOc3ccc(OC)cc3)CC2=O)cc1 (stereo not drawn)	inconclusive: 12.6 µM [inhibitor, partial curve]	
COc1ccc(Br)c2c1-c1nc(NC(=O)c3ccccc3SC)sc1C2	inconclusive: 14.1 µM [inhibitor, partial curve, poor fit]	
CC(C)c1ccc(N=c2c([N+](=O)[O-])nn(-c3ccc4c(c3)OCCO4)n2O)cc1	inconclusive: 3.98 µM [inhibitor, full curve]	
Cc1c(C(=O)NCCSCc2cccc(C(F)(F)F)c2)cnn1-c1ccc(Cl)cc1	inconclusive: 44.7 µM [inhibitor, single point]	
Cc1ccc(-c2[nH]c(=O)n3ccncc23)s1	inconclusive: 15.8 µM [inhibitor, partial curve]	
COc1ccccc1C(=O)C1CCCN(C(=O)CCC(=O)c2ccccc2)C1 (stereo not drawn)	inconclusive: 44.7 µM [inhibitor, single point]	
O=C(Nc1ccc2c(c1)OCO2)c1ccc(Cl)nc1	inconclusive: 11.2 µM [inhibitor, partial curve]	
CCOC(=O)c1ccc(NC2=CC(c3ccc(Br)cc3)N(c3ccc(C(=O)OCC)cc3)C2=O)cc1 (stereo not drawn)	inconclusive: 2.24 µM [inhibitor, partial curve]	
c1ccc2nc(-c3nc4ccccc4o3)ccc2c1	inconclusive: 3.98 µM [inhibitor, full curve]	
Cc1ccc(CSc2nc(=O)c3c(C)cc(C)nc3n2C2CC2)cc1	inconclusive: 35.5 µM [inhibitor, single point]	
COc1ccc(NC(=O)Cn2c(=O)n(-c3ccc(Cl)cc3)c(=O)c3c(C)c(C(=O)N(C)C)sc32)cc1Cl	inconclusive: 25.1 µM [activator, partial curve]	
COc1ccc(/C=C2\SC(=S)N(C(C(=O)O)c3ccccc3)C2=O)c(OC)c1 (stereo not drawn)	active: 12.6 µM	
COc1ccc(-c2cn[nH]c2-c2ccc(OCc3ccc(F)cc3)cc2O)cc1OC		inactive: -14.9%
O=C(N=C1N=C2C=CC(Br)=CN2Cc2ccccc21)c1ccc([N+](=O)[O-])cc1[N+](=O)[O-]	inconclusive: 8.91 µM [inhibitor, partial curve]	
CCOC(=O)c1cc(-c2ccc(F)cc2)n(CCC(=O)Nc2ccccc2OC)c1C		inactive: -4.67%
CCOc1cc(/C=N/Nc2ncnc(Cl)c2N)ccc1O	inconclusive: 6.31 µM [inhibitor, partial curve]	
Cc1ccc(NNC(=O)c2cc(C(C)(C)C)nn2Cc2ccccc2)cc1	inconclusive: 14.1 µM [inhibitor, partial curve, poor fit]	
O=C(/C=C/c1ccccc1)NCCSCc1ccccc1Cl		inactive: -13.6%

Structure (SMILES)	Potency	activity, negative = inhibition
O=C(COC(=O)[C@@H]1CCCN1S(=O)(=O)c1ccc(Cl)cc1)NC12CC3CC(CC(C3)C1)C2	inconclusive: 31.6 µM [inhibitor, single point]	
COc1cccc(/C=N/NC(=O)COc2cccc3cccnc23)c1O	inconclusive: 3.55 µM [inhibitor, full curve]	
C=CCc1cccc2cc(C(=O)NCc3ccc(C(=O)OCC)o3)c(=O)oc12		inactive: -15.6%
Cc1c(C(=O)NCCN(C)C)oc2c1-c1nn(Cc3ccccc3Cl)cc1CC2	inconclusive: 10 µM [inhibitor, partial curve]	
CCOc1ccccc1/C=C(/NC(=O)c1ccccc1)C(=O)NC(C)c1ccccc1 (stereo not drawn)		inactive: 0.445%
Cn1c(SCC(=O)Nc2ccc3c(c2)oc2ccccc23)nnc1-c1ccccc1	inconclusive: 2.51 µM [inhibitor, partial curve]	
CCCCOP(=O)(OCCCC)C(O)c1ccc(F)cc1 (stereo not drawn)		inactive: -1.14%
Cc1n[nH]c(C)c1N1C(=O)c2cccc3c(N4CCCCCC4)ccc(c23)C1=O	inconclusive: 17.8 µM [inhibitor, partial curve]	
Cc1ccc2[nH]c3c(c2c1)CN(C(=O)CN1CCN(C(=O)c2ccco2)CC1)CC3		inactive: -10.1%
Cn1c(SCC(=O)N2CCOCC2)nc(O)cc1=O	inconclusive: 15.8 µM [inhibitor, partial curve]	
c1ccc(Nc2scc(-c3ccccc3)[n+]2Cc2ccco2)cc1	inconclusive: 28.2 µM [inhibitor, partial curve]	
CCOC(=O)NC(=S)c1ccc[nH]1		inactive: -1.45%
Cc1cccc(-n2nc([N+](=O)[O-])c(=NCc3cccnc3)n2O)c1	inconclusive: 20 µM [inhibitor, partial curve]	
COc1cccc(CNC(=O)CCC2CCCN(C(=O)c3ccc(OC)c(F)c3)C2)c1 (stereo not drawn)		inactive: -12.7%
Cc1ccc(C(C)C)c(OCCCN(C)Cc2ccccc2)c1	inconclusive: 11.2 µM [inhibitor, partial curve]	
COc1ccc(Cl)cc1NC(=O)CCCn1c(=O)c2cccn2c2cccnc21	inconclusive: 17.8 µM [inhibitor, partial curve]	
CCSc1ccc(-c2ccco2)nn1	inconclusive: 25.1 µM [inhibitor, single point]	
CNc1nnc(-c2cccc(N(C)C)c2)s1	inconclusive: 31.6 µM [inhibitor, single point]	
CCc1cccc(C)c1NC(=O)COC(=O)c1c2c(nc3ccccc13)/C(=C\c1cccs1)CCC2	inconclusive: 22.4 µM [inhibitor, partial curve]	
COCCCNC(=O)/C(C#N)=C/c1cccc(NC(=O)c2ccccc2Cl)c1	inconclusive: 44.7 µM [inhibitor, single point]	
COc1ccc(-c2nc(CCNC(=O)c3cc(OC)c(OC)c(OC)c3)cs2)cc1	inconclusive: 12.6 µM [inhibitor, partial curve]	
